Test results from the supplement of paper PMC9513381.
Recombinant human monoclonal antibodies (heavy:light variable regions). ELISA EC50 on the named antigen, from 10 µg/ml down; IC50 / IC90 against spike pseudovirus on 293T-ACE2 cells, 48 h; lower = stronger. Calls: IC50 above 1,000 ng/ml = non-neutralizing; EC50 above 1,000 ng/ml = non-binder. The source prints 1000 for neutralization that was not reached; it is given as >1000 ng/ml. Only binders of the Wuhan-Hu-1 domain have neutralization values.

Experiments:
[1] = molecular target: SARS-CoV-2 Wuhan-Hu-1 spike pseudovirus; assay: pseudovirus neutralization IC50; higher = weaker neutralization
Experimental: (§1)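 Single-round luciferase reporter pseudovirus mixed with antibody dilutions and put on 293T-ACE2 cells for 48 h; signal relative to no-antibody wells, four-parameter fit.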

[2] = molecular target: SARS-CoV-2 Wuhan-Hu-1 spike pseudovirus; assay: pseudovirus neutralization IC90; higher = weaker neutralization
Experimental: as §1

[3] = molecular target: SARS-CoV-2 Delta (B.1.617.2) spike RBD; assay: ELISA binding EC50; higher = weaker binding; ELISA of recombinant human antibody on coated antigen, from 10 µg/ml in fourfold dilutions; four-parameter fit.
[4] = molecular target: SARS-CoV-2 Omicron BA.1 spike protein; assay: as above
[5] = molecular target: SARS-CoV-2 Wuhan-Hu-1 spike receptor-binding domain; assay: as above

Row | Binder | pseudovirus neutralization IC50 [1] [µg/mL] | pseudovirus neutralization IC90 [2] [µg/mL] | ELISA binding EC50 [3] [µg/mL] | ELISA binding EC50 [4] [µg/mL] | ELISA binding EC50 [5] [µg/mL]
1 | B014 (protein) chain 1: QVQLVESGGGVVQPGKSLRLSCVGSGFTFSTYGMHWVRQAPGKGLEWVALISYDGSDEYYADSVRGRFTMSRDNSKNTLYLQMNSLRVEDTAVYYCAKQISTYYAAGIYYFDYWGQGTLVTVSS chain 2: DIQMTQSPSSLSASIGDTVTITCQASQDINNCLIWYQQKPGKAPKILIYDASNLEAGVPSRFSGSGSGTDFTFTISSLHREDIATYYCQQCNGLPPTFGGGTKVEI | > 1 | > 1 | 0.0412 | 0.066 | 0.0029
2 | B015 (protein) chain 1: QVQLVQSGAEVKKPGSSVKVSCKASGGTFSNNAISWVRQAPGQGLEWMGRIIPIPGITNYAQEFQGRVTITADKSTRTAYMEVSSLRSEDTAIYYCATDVDTALFADAFDIWGQGTMVIVSS chain 2: DIQMTQSPSSLSASVGDRVTITCRASQGISNYLAWYQQKAGKVPKLLIYAASTLQSGVPSRFSGSGSGTDFTLTISSLQPEDVATYYCQKYNSVPFTFGPGTKVDIK | 0.0115 | 0.0602 | > 1 | 0.0301 | 0.00374
3 | B016 (protein) chain 1: EVQLVESGGGLVQPGGSLRLTCAASGITVSSNYMNWVRQAPGKGLEWVSVLYAGGSTFYADSVKGRFTISRDNSNNTLYLQMNSLRAEDTAVYYCARDLVDFGMDVWGQGTTVTVSS chain 2: DIQMTQSPSSLSASVGDRVTITCQASQDIGNNLNWYQQKPGKAPKLLIYDASNLETGVPSRFSGSGSGTDFTLTISSLQPEDFATYYCQQYDNLPPITFGPGTKVDIK | 0.0111 | 0.198 | 0.471 | 0.00296 | 0.00338
4 | B019 (protein) chain 1: QVQLVESGGGVVQPGRSLRLSCAASGFTFNSYAMHWVRQAPGKGLEWVAVISHDGSIKYSADALKGRFTISRDNSKNTLYLQMKSLRTEDTAVYYCARDLDPRIQVVIPGYWGQGALVTVSS chain 2: DIQMTQSPSSLSASVGDRVTITCRASQSISTYLNWYQQKPGKAPKLLIYTTSSLQSGVPSRFSGTGSGTDFTLTISSLQPEDFATYYCQQSYSAPYTFGQGTNLDIK | > 1 | > 1 | 0.0245 | 0.0149 | 0.00242
5 | B020 (protein) chain 1: EVQLLESGGGLVQPGGSLRLSCAASGFTFKYFAMNWVRQAPGKGLEWVSVISGSGDNTYYADSVKGRFTISRDNSKNTLYVQMNSLRAEDTAVYYCAKDRYGGPRASTMDVWGQGTTVTV chain 2: DIQMTQSPSSLSASVGDRVTITCQASQDITTYLNWYQQKPGNAPKLLVYDASNLETGVPSRFSGSGSGTDFTFTITSLQPEDFATYFCQQYGGHPLTFGGGTKVEIK | > 1 | > 1 | 0.041 | 0.058 | 0.00439
6 | B026 (protein) chain 1: QVQLVESGGGVVQPGRSLRLSCAASGFTFNTFAMHWVRQAPGRGLEWVAAISYDGTIKTYADSVKGRFTISRDTSKSTLYLQVNSLRTEDTALYYCARDSDIVRTAQFDYWGQGTLVTVSS chain 2: DIQMTQSPSSLSASVGDRVAITCRASQSISNYLNWYQKKPGKAPNLLIYTASSLQSGVPSRFSGSGSGTDFTLTISSLQPEDFATYYCQQSYTTPYTFGQGTQLENK | > 1 | > 1 | 0.451 | > 1 | 0.0151
7 | B028 (protein) chain 1: EVQLVESGGGLIQPGGSLRLSCAASGFIVSRNYMSWVRQAPGKGLEWVSLLYAGGSTFYADSVKGRFTVSRDNSKNTLFLQMDSLRAEDTAVYYCARDLQDRGGLDYWGQGTLVTVS chain 2: QAVVTQEPSLTVSPGGTVTLTCGFSTGAVTSGHYPYWFQQKAGQAPRTLIYDTINKHSWTPARFSASLLGGRAALTLSGAQPEDEADYYCLLSNIGARRVFGRGTKLTVL | > 1 | > 1 | > 1 | > 1 | 0.609
